Measurements: the supplement of paper PMC4967469

Compound: FC(F)c1nc2ccccc2n1-c1nc(N2CCOCC2)nc(N2CCOCC2)n1 [ZSTK474]
Experiment: Viability of human cancer cell lines after 72 h of drug (GDSC screen)
Description: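 Human cancer cell lines in 384-well plates, medium with 10% serum, drug for 72 h over a 256-fold dose range (nine 2-fold or five 4-fold steps up to the top dose). Adherent lines were fixed and stained with the nucleic acid dye Syto60, suspension lines read with resazurin; signal relative to control wells, capped at 0 and 100%. One two-parameter sigmoid per drug and line, fitted in a mixed model over all curves with the slope shared within a line.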

Cell Line | AUC | IC50
COLO-783 (melanoma, adherent, top dose 5.12 µM) | 0.963 | > 5120 nM
COLO-792 (melanoma, adherent, top dose 5.12 µM) | 0.777 | 2020 nM
COLO-800 (melanoma, adherent, top dose 5.12 µM) | 0.811 | 2620 nM
COLO-824 (breast, adherent, top dose 5.12 µM) | 0.907 | > 5120 nM
COLO-829 (melanoma, adherent, top dose 5.12 µM) | 0.721 | 1860 nM
COR-L23 (large cell lung carcinoma, adherent, top dose 5.12 µM) | 0.774 | 1950 nM
COR-L88 (small cell lung carcinoma, adherent, top dose 5.12 µM) | 0.964 | > 5120 nM
COR-L95 (small cell lung carcinoma, adherent, top dose 5.12 µM) | 0.906 | > 5120 nM
COR-L105 (lung adenocarcinoma, adherent, top dose 5.12 µM) | 0.608 | 679 nM
COR-L279 (small cell lung carcinoma, suspension, top dose 5.12 µM) | 0.728 | 1300 nM
COR-L303 (small cell lung carcinoma, suspension, top dose 5.12 µM) | 0.582 | 531 nM
COR-L311 (small cell lung carcinoma, suspension, top dose 5.12 µM) | 0.529 | 387 nM
COR-L321 (lung, suspension, top dose 5.12 µM) | 0.797 | 2410 nM
CP50-MEL-B (melanoma, adherent, top dose 5.12 µM) | 0.943 | > 5120 nM
CP66-MEL (melanoma, adherent, top dose 5.12 µM) | 0.901 | > 5120 nM
CPC-N (small cell lung carcinoma, suspension, top dose 5.12 µM) | 0.911 | > 5120 nM
CS1 (bone, adherent, top dose 5.12 µM) | 0.632 | 777 nM
CTB-1 (B-cell lymphoma, suspension, top dose 5.12 µM) | 0.823 | 4620 nM
CTV-1 (acute myeloid leukaemia, suspension, top dose 5.12 µM) | 0.789 | 1790 nM
CW-2 (large intestine, adherent, top dose 5.12 µM) | 0.973 | > 5120 nM
Ca9-22 (head and neck, adherent, top dose 5.12 µM) | 0.969 | > 5120 nM
Ca-Ski (cervix, adherent, top dose 5.12 µM) | 0.465 | 254 nM
CaR-1 (large intestine, adherent, top dose 5.12 µM) | 0.815 | 4840 nM
Calu-3 (lung adenocarcinoma, adherent, top dose 5.12 µM) | 0.6 | 646 nM
Calu-6 (lung adenocarcinoma, adherent, top dose 5.12 µM) | 0.945 | > 5120 nM
Caov-3 (ovary, adherent, top dose 5.12 µM) | 0.841 | 2940 nM
Caov-4 (ovary, adherent, top dose 5.12 µM) | 0.625 | 833 nM

Cell Line | AUC | IC50
Capan-2 (pancreas, adherent, top dose 5.12 µM) | 0.843 | 4830 nM
ChaGo-K-1 (non-small cell lung carcinoma, adherent, top dose 5.12 µM) | 0.917 | > 5120 nM
D-247MG (glioma, adherent, top dose 5.12 µM) | 0.83 | 5010 nM
D-263MG (glioma, adherent, top dose 5.12 µM) | 0.969 | > 5120 nM
D-283MED (medulloblastoma, adherent, top dose 5.12 µM) | 0.99 | > 5120 nM
D-336MG (glioma, adherent, top dose 5.12 µM) | 0.658 | 1000 nM
D-392MG (glioma, adherent, top dose 5.12 µM) | 0.839 | > 5120 nM
D-423MG (glioma, adherent, top dose 5.12 µM) | 0.52 | 367 nM
D-502MG (glioma, adherent, top dose 5.12 µM) | 0.776 | 3350 nM
D-542MG (glioma, adherent, top dose 5.12 µM) | 0.923 | > 5120 nM
D-566MG (glioma, adherent, top dose 5.12 µM) | 0.968 | > 5120 nM
DAN-G (pancreas, adherent, top dose 5.12 µM) | 0.841 | 2930 nM
DB (B-cell lymphoma, suspension, top dose 5.12 µM) | 0.897 | > 5120 nM
DBTRG-05MG (glioma, adherent, top dose 5.12 µM) | 0.893 | > 5120 nM
DEL (lymphoid neoplasm, suspension, top dose 5.12 µM) | 0.909 | 4460 nM
DG-75 (Burkitt lymphoma, suspension, top dose 5.12 µM) | 0.926 | > 5120 nM
DJM-1 (skin, adherent, top dose 5.12 µM) | 0.96 | > 5120 nM
DK-MG (glioma, adherent, top dose 5.12 µM) | 0.852 | > 5120 nM
DMS-53 (small cell lung carcinoma, adherent, top dose 5.12 µM) | 0.982 | > 5120 nM
DMS-79 (small cell lung carcinoma, suspension, top dose 5.12 µM) | 0.889 | > 5120 nM
DMS-114 (small cell lung carcinoma, adherent, top dose 5.12 µM) | 0.78 | 2450 nM
DMS-273 (small cell lung carcinoma, adherent, top dose 5.12 µM) | 0.9 | > 5120 nM
DND-41 (T-cell leukaemia, suspension, top dose 5.12 µM) | 0.739 | 1390 nM
DOK (head and neck, adherent, top dose 5.12 µM) | 0.629 | 869 nM
DOV13 (ovary, adherent, top dose 5.12 µM) | 0.91 | > 5120 nM
DSH1 (bladder, adherent, top dose 5.12 µM) | 0.79 | 2180 nM
DU-145 (prostate, adherent, top dose 5.12 µM) | 0.954 | > 5120 nM

Cell Line | AUC | IC50
DU-4475 (breast, suspension, top dose 5.12 µM) | 0.904 | 4590 nM
Daoy (medulloblastoma, adherent, top dose 5.12 µM) | 0.686 | 1000 nM
Detroit562 (head and neck, adherent, top dose 5.12 µM) | 0.901 | > 5120 nM
DoTc2-4510 (cervix, adherent, top dose 5.12 µM) | 0.928 | > 5120 nM
EB2 (Burkitt lymphoma, suspension, top dose 5.12 µM) | 0.146 | 29.5 nM
EB-3 (Burkitt lymphoma, suspension, top dose 5.12 µM) | 0.534 | 402 nM
EBC-1 (lung squamous cell carcinoma, adherent, top dose 5.12 µM) | 0.708 | 1340 nM
EC-GI-10 (oesophagus, adherent, top dose 5.12 µM) | 0.989 | > 5120 nM
ECC10 (stomach, suspension, top dose 5.12 µM) | 0.901 | > 5120 nM
EFM-19 (breast, adherent, top dose 5.12 µM) | 0.66 | 1130 nM
EFM-192A (breast, adherent, top dose 5.12 µM) | 0.675 | 1050 nM
EFO-21 (ovary, adherent, top dose 5.12 µM) | 0.743 | 2200 nM
EFO-27 (ovary, adherent, top dose 5.12 µM) | 0.823 | 4080 nM
EGI-1 (biliary tract, adherent, top dose 5.12 µM) | 0.729 | 1780 nM
EJM (lymphoid neoplasm, semi-adherent, top dose 5.12 µM) | 0.707 | 1100 nM
EKVX (lung adenocarcinoma, adherent, top dose 5.12 µM) | 0.847 | > 5120 nM
EM-2 (chronic myeloid leukaemia, suspension, top dose 5.12 µM) | 0.835 | 4000 nM
EMC-BAC-1 (lung adenocarcinoma, adherent, top dose 5.12 µM) | 0.813 | 3270 nM
EMC-BAC-2 (lung adenocarcinoma, adherent, top dose 5.12 µM) | 0.759 | 2100 nM
EN (endometrium, adherent, top dose 5.12 µM) | 0.799 | 3250 nM
EPLC-272H (lung squamous cell carcinoma, adherent, top dose 5.12 µM) | 0.626 | 748 nM
ES1 (Ewing sarcoma, adherent, top dose 5.12 µM) | 0.54 | 411 nM
ES3 (Ewing sarcoma, adherent, top dose 5.12 µM) | 0.705 | 1250 nM
ES4 (Ewing sarcoma, adherent, top dose 5.12 µM) | 0.524 | 376 nM
ES5 (Ewing sarcoma, adherent, top dose 5.12 µM) | 0.381 | 143 nM

The IC50 comes from the fitted curve, where viability falls to half of the control; a limit (>, <) means that the fit lies beyond the doses tested. AUC sums up the same curve from the lowest dose to the 256-fold higher top dose; it is 1 without any effect and falls as sensitivity rises.
